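Compound exposure: 48 hours, 5 concentrations, 96-well plates. The concentration for 50% growth inhibition is given as GI50. TGI is the concentration that stops growth completely.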

The test system of the test is NCI-H322M lung. The test can be described thus: NCI tumour cell line growth inhibition, 48 h.
As for `CN(CCCNC(=O)Cc1ccc2ccc3cccc4ccc1c2c34)CCCNc1cc(-c2ccc3ccccc3c2)nc2ccccc12`, the GI50 was 1.5 µM and the TGI stood at 2.88 µM.

In the case of `Cc1cc(I)cc(CN(C)CCCN2CCOCC2)c1O`, the GI50 is 53 µM and the TGI is above 100 µM.

`COC(=O)OCC1OC(N2C(=O)NC(=O)C(Br)C2N=[N+]=[N-])CC1OC(=O)OC` (stereo not given) had a TGI above 100 µM.

In the case of `CCC(C#N)NC(=O)NC(C#N)CC` (stereo not given), the TGI is above 100 µM.

Turning to `O=C1[C@H]2ON(c3ccccc3)C(c3ccc(Cl)cc3)[C@H]2C(=O)N1c1ccc(Cc2ccc(N3C(=O)[C@@H]4ON(c5ccccc5)C(c5ccc(Cl)cc5)[C@@H]4C3=O)cc2)cc1` (stereo not given in full), the TGI was above 100 µM.

With `O=C1NC(N/N=C/C(O)C(O)C(O)CO)=N/C1=C\c1ccco1` (stereo not given), the TGI is above 100 µM.

As for `COc1cc(C2SCC(=O)N2c2ccc(-c3ccc(-n4c(-c5ccccc5)nc5ccccc5c4=O)cc3)cc2)cc(OC)c1OC` (stereo not given), the TGI was above 100 µM.

Compound `Cc1ccc([C@H]2CC(=O)C[C@H](c3ccc(C)cc3)C23C(=O)c2ccccc2C3=O)cc1` gave a TGI above 100 µM.

`COC(=O)C1=CC(=O)OC1(OO)c1ccccc1` (stereo not given) returned a TGI above 100 µM.

Take `Nc1nc(SN=Nc2ccc(S(N)(=O)=O)cc2)c2[nH]cnc2n1`: the GI50 was 3.65 µM and the TGI is above 100 µM.

Compound `CC(=O)O[C@H]1C#C/C=C\C#CC[C@@H]2C(=O)N[C@@H]12` registered a TGI above 100 µM.

As for `O=C(NC(Cc1ccc(I)cc1)C(=O)O)c1ccc(Br)cc1` (stereo not given), the TGI was above 100 µM.

Compound `C=C1C(=O)O[C@H]2/C=C(/C)C3=CC(=O)[C@@](C)(C[C@@H](OC(=O)/C(C)=C\C)C12)O3` (stereo not given in full) registered a TGI of 25 µM.

In turn, `CC1CCOc2ccc(cc2)C=Nc2ccc(cc2)CCc2ccc(cc2)N=Cc2ccc(cc2)OCC1` (stereo not given) yielded a TGI above 100 µM.

Compound `CC(=O)c1sc(-c2nc(C)c(C(=O)/C=C\c3ccc(/C=C\C(=O)c4sc(-c5nc(C)c(C(C)=O)s5)nc4C)cc3)s2)nc1C` had a TGI above 100 µM.

With `Cc1c(C2=C(Br)C(=O)N(C)C2=O)c(=O)n(C)c(=O)n1C`, the TGI is above 100 µM.

On to `O=C1c2ccccc2CCCCCCCCCCC12OCCCO2`, for which the TGI was above 100 µM.

These data come from PubChem BioAssay (NCI).
